These results are taken from paper PMC12820563, “FoxP3 forms a head-to-head dimer in vivo and stabilizes its multimerization on adjacent microsatellites”.

Some of the results follow.

The target in the experiment is T1, MBP-FoxP1dN (Mus musculus, UniProt P58462 326-579).
T1 sequence: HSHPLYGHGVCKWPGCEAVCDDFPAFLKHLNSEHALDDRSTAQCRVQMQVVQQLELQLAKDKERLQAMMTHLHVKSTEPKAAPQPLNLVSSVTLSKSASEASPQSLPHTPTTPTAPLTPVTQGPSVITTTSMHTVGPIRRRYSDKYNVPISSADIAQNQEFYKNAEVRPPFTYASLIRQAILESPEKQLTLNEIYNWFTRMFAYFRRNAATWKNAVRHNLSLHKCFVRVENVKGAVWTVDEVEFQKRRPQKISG
Description: PD-seq (MBP pull-down with sequencing); 20 mM Tris-HCl pH 7.5, 100 mM NaCl, 1.5 mM MgCl2, 0.4 uM protein, 0.1 uM dsDNA library, 30 min, room temperature, amylose pull-down; high values mean tight binding. As to conditions: protein: recombinant; tags: His6-MBP; chain copies: 2; dsDNA, one strand shown. A digest of the protocol: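 His6-MBP-tagged mouse FoxP3 or FoxP1 fragment lacking the N-terminus, expressed in E. coli, was mixed at 0.4 µM with 0.1 µM Klenow-filled double-stranded degenerate DNA library. Incubation was 30 min at room temperature in Tris pH 7.5 buffer with NaCl and MgCl2. Complexes were caught on amylose resin and washed three times; DNA was released with proteinase K, PCR-barcoded and Illumina-sequenced. Binding is reads-per-million enrichment, pull-down over input, with replicates pooled.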
As for “GATGATTGTTCTCCCAGCTGATGAATTTAGTAAATCGAGTAAACAAATTTTCCTAATCTTTCTGTTCAAGCGCCATCTAC”, the binding signal was 1.58 RPM ratio (pull-down/input).
Turning to “GATGATTGTTCTCCCAGCTGATGAATTTTAACCATCGAGTAAACAAATTTTCCTAATCTTTCTGTTCAAGCGCCATCTAC”, the binding signal is 0.987 RPM ratio (pull-down/input).
On to “GATGATTGTTCTCCCAGCTGATGAATTATATCACTCGAGTAAACAAATTTTCCTAATCTTTCTGTTCAAGCGCCATCTAC”, for which the binding signal is 0.986 RPM ratio (pull-down/input).
As to “GATGATTGTTCTCCCAGCTGATGAATTATCATATTCGAGTAAACAAATTTTCCTAATCTTTCTGTTCAAGCGCCATCTAC”, the binding signal was 1.06 RPM ratio (pull-down/input).
Regarding “GATGATTGTTCTCCCAGCTGATGAATTACAGGCATCGAGTAAACAAATTTTCCTAATCTTTCTGTTCAAGCGCCATCTAC”, the binding signal is 1.14 RPM ratio (pull-down/input).
Take “GATGATTGTTCTCCCAGCTGATGAATTACATCGTTCGAGTAAACAAATTTTCCTAATCTTTCTGTTCAAGCGCCATCTAC”: the binding signal is 1.06 RPM ratio (pull-down/input).
The figure for “GATGATTGTTCTCCCAGCTGATGAATTGCGGTTATCGAGTAAACAAATTTTCCTAATCTTTCTGTTCAAGCGCCATCTAC” is 1.17 RPM ratio (pull-down/input); for “GATGATTGTTCTCCCAGCTGATGAATTGGTATACTCGAGTAAACAAATTTTCCTAATCTTTCTGTTCAAGCGCCATCTAC” it is 1.08 RPM ratio (pull-down/input); for “GATGATTGTTCTCCCAGCTGATGAATTTCGACGTTCGAGTAAACAAATTTTCCTAATCTTTCTGTTCAAGCGCCATCTAC” it is 0.937 RPM ratio (pull-down/input).
With “GATGATTGTTCTCCCAGCTGATGAATTAAAATCATCGAGTAAACAAATTTTCCTAATCTTTCTGTTCAAGCGCCATCTAC”, the binding signal is 1.09 RPM ratio (pull-down/input).
Turning to “GATGATTGTTCTCCCAGCTGATGAATTCATTTCCTCGAGTAAACAAATTTTCCTAATCTTTCTGTTCAAGCGCCATCTAC”, the binding signal is 0.805 RPM ratio (pull-down/input).
As to “GATGATTGTTCTCCCAGCTGATGAATTTGACATGTCGAGTAAACAAATTTTCCTAATCTTTCTGTTCAAGCGCCATCTAC”, the binding signal is 0.886 RPM ratio (pull-down/input).
The result for “GATGATTGTTCTCCCAGCTGATGAATTATCAATTTCGAGTAAACAAATTTTCCTAATCTTTCTGTTCAAGCGCCATCTAC” reads 1.12 RPM ratio (pull-down/input); that for “GATGATTGTTCTCCCAGCTGATGAATTGATAGGTTCGAGTAAACAAATTTTCCTAATCTTTCTGTTCAAGCGCCATCTAC”, 0.902 RPM ratio (pull-down/input); that for “GATGATTGTTCTCCCAGCTGATGAATTAGACTTGTCGAGTAAACAAATTTTCCTAATCTTTCTGTTCAAGCGCCATCTAC”, 0.89 RPM ratio (pull-down/input).
Take “GATGATTGTTCTCCCAGCTGATGAATTCGTAACGTCGAGTAAACAAATTTTCCTAATCTTTCTGTTCAAGCGCCATCTAC”: the binding signal is 1.01 RPM ratio (pull-down/input).
The result for “GATGATTGTTCTCCCAGCTGATGAATTGACTCCGTCGAGTAAACAAATTTTCCTAATCTTTCTGTTCAAGCGCCATCTAC” reads 0.991 RPM ratio (pull-down/input); that for “GATGATTGTTCTCCCAGCTGATGAATTCTCAAACTCGAGTAAACAAATTTTCCTAATCTTTCTGTTCAAGCGCCATCTAC”, 0.811 RPM ratio (pull-down/input); that for “GATGATTGTTCTCCCAGCTGATGAATTCACCGCCTCGAGTAAACAAATTTTCCTAATCTTTCTGTTCAAGCGCCATCTAC”, 0.899 RPM ratio (pull-down/input).
For the sequence “GATGATTGTTCTCCCAGCTGATGAATTCCTAGCTTCGAGTAAACAAATTTTCCTAATCTTTCTGTTCAAGCGCCATCTAC”, the binding signal was 0.839 RPM ratio (pull-down/input).
Turning to “GATGATTGTTCTCCCAGCTGATGAATTAGAGTCCTCGAGTAAACAAATTTTCCTAATCTTTCTGTTCAAGCGCCATCTAC”, the binding signal was 0.859 RPM ratio (pull-down/input).
“GATGATTGTTCTCCCAGCTGATGAATTCCGGCGCTCGAGTAAACAAATTTTCCTAATCTTTCTGTTCAAGCGCCATCTAC”: the binding signal was 0.751 RPM ratio (pull-down/input).
For the sequence “GATGATTGTTCTCCCAGCTGATGAATTTAGTACATCGAGTAAACAAATTTTCCTAATCTTTCTGTTCAAGCGCCATCTAC”, the binding signal is 1.21 RPM ratio (pull-down/input).
The result for “GATGATTGTTCTCCCAGCTGATGAATTTCGCTCATCGAGTAAACAAATTTTCCTAATCTTTCTGTTCAAGCGCCATCTAC” reads 0.842 RPM ratio (pull-down/input); that for “GATGATTGTTCTCCCAGCTGATGAATTTTAATTCTCGAGTAAACAAATTTTCCTAATCTTTCTGTTCAAGCGCCATCTAC”, 0.922 RPM ratio (pull-down/input); that for “GATGATTGTTCTCCCAGCTGATGAATTTTGCAAGTCGAGTAAACAAATTTTCCTAATCTTTCTGTTCAAGCGCCATCTAC”, 0.967 RPM ratio (pull-down/input).
Turning to “GATGATTGTTCTCCCAGCTGATGAATTACTATTCTCGAGTAAACAAATTTTCCTAATCTTTCTGTTCAAGCGCCATCTAC”, the binding signal was 1.14 RPM ratio (pull-down/input).
“GATGATTGTTCTCCCAGCTGATGAATTTATGCTTTCGAGTAAACAAATTTTCCTAATCTTTCTGTTCAAGCGCCATCTAC”: the binding signal is 1.55 RPM ratio (pull-down/input).
For “GATGATTGTTCTCCCAGCTGATGAATTCAACGTATCGAGTAAACAAATTTTCCTAATCTTTCTGTTCAAGCGCCATCTAC”, the binding signal was 1.01 RPM ratio (pull-down/input).
Regarding “GATGATTGTTCTCCCAGCTGATGAATTCTAACGTTCGAGTAAACAAATTTTCCTAATCTTTCTGTTCAAGCGCCATCTAC”, the binding signal is 0.876 RPM ratio (pull-down/input).
The result for “GATGATTGTTCTCCCAGCTGATGAATTCGCAGGATCGAGTAAACAAATTTTCCTAATCTTTCTGTTCAAGCGCCATCTAC” reads 0.876 RPM ratio (pull-down/input); that for “GATGATTGTTCTCCCAGCTGATGAATTTTACTACTCGAGTAAACAAATTTTCCTAATCTTTCTGTTCAAGCGCCATCTAC”, 0.886 RPM ratio (pull-down/input).
